At least one peptide structure holds a part that was inferred or is arguable (an end, a ring closure or a residue).
What was measured:
hMC1R = target: T1, hMC1R (Homo sapiens, UniProt Q01726); assay: In vitro competitive binding assay on human MC1R membranes vs 125I-NDP-αMSH
T1 construct: purchased Perkin Elmer

hMC3R = target: T2, hMC3R (Homo sapiens, UniProt P41968); assay: In vitro competitive binding assay on human MC3R membranes vs 125I-NDP-αMSH; details: n ≥ 3; read-out: Inhibition constants (Ki) hMC3R
T2 construct: purchased Perkin Elmer
T2 sequence (P41968 whole entry): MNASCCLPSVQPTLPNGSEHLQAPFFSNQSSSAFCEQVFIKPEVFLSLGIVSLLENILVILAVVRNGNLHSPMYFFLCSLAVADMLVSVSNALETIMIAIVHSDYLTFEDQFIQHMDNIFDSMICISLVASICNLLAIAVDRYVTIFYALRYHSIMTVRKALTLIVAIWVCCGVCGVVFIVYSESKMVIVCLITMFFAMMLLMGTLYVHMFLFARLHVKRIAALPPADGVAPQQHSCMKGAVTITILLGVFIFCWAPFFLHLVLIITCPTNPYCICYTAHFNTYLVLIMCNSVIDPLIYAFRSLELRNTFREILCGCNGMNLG

hMC4R = target: T3, hMC4R (Homo sapiens, UniProt P32245); assay: In vitro competitive binding assay on human MC4R membranes vs 125I-NDP-αMSH; details: n ≥ 3; read-out: Inhibition constants (Ki) hMC4R
T3 construct: purchased Perkin Elmer
T3 sequence (P32245 whole entry): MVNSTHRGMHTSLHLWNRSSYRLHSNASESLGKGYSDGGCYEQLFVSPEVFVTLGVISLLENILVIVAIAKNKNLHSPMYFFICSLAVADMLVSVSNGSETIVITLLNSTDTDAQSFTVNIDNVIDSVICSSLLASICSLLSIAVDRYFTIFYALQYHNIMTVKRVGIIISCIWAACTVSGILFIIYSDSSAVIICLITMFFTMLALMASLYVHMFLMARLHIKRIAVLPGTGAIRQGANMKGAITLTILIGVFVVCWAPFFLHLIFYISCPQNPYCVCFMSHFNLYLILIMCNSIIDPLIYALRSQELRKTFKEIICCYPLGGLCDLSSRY

hMC5R = target: T4, hMC5R (Homo sapiens, UniProt P33032); assay: In vitro competitive binding assay on human MC5R membranes vs 125I-NDP-αMSH; details: n ≥ 3; read-out: Inhibition constants (Ki) hMC5R
T4 construct: purchased Perkin Elmer
T4 sequence (P33032 whole entry): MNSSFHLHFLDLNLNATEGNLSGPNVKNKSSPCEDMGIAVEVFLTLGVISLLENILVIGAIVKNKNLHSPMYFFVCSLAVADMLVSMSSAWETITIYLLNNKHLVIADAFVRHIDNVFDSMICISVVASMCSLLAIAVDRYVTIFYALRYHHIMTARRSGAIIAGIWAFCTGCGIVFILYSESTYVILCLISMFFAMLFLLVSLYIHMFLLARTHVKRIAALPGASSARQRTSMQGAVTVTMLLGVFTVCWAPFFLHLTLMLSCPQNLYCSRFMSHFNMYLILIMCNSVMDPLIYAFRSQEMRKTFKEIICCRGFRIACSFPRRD

T1 sequence (Q01726 whole entry): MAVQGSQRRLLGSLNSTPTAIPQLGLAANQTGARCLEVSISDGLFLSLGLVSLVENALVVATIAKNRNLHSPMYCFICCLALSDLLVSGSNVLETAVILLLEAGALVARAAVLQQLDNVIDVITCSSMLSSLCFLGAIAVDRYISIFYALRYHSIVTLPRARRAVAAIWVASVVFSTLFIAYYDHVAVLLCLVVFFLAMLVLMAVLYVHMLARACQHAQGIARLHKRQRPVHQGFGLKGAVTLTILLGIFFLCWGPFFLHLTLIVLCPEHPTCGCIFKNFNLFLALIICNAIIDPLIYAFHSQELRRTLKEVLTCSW

CCCC[C@H](NC(=O)CN1CCC(NC(=O)CN2CCN(CC(=O)O)CCN(CC(=O)O)CCN(CC(=O)O)CC2)CC1)C(=O)N[C@H]1CC(=O)NCCCC[C@@H](C(N)=O)NC(=O)[C@H](Cc2c[nH]c3ccccc23)NC(=O)[C@H](CCCNC(=N)N)NC(=O)[C@@H](Cc2ccccc2)NC(=O)[C@H](Cc2c[nH]cn2)NC1=O [^natGa-CCZ01048, metal not drawn]
Selectivity to MC1R within melanocortin family of receptors (hMC1R; hMC1R vs hMC3R, hMC4R, hMC5R): relatively low selectivity
Ki (hMC1R; n ≥ 3, read-out: Inhibition constants (Ki) hMC1R): 0.69 ± 0.62 nM
Ki (hMC3R): 83.9 ± 24.8 nM
Ki (hMC4R): 6.05 ± 2.23 nM
Ki (hMC5R): 45.5 ± 38.9 nM
